Assay results published in the supplement of paper PMC4604168 (melanoma cell lines).
This is one part of the list. Many values rest on one well or one pass, so single values are uncertain.

What was measured:
Assay in all cases: cell count relative to DMSO control; melanoma cells; higher = more viable cells
Details in all cases: library dose: standard library concentration; 72 h
G361 = test system: G361
IPC-298 = test system: IPC-298
IST-MEL1 = test system: IST-MEL1
LB2518-MEL = test system: LB2518-MEL
LOXIMVI = test system: LOXIMVI
MEL-HO = test system: MEL-HO
MZ2-MEL = test system: MZ2-MEL
MeWo = test system: MeWo
RPMI7951 = test system: RPMI7951
RVH-421 = test system: RVH-421
SkMel28 = test system: SkMel28
SkMel2 = test system: SkMel2
SkMel30 = test system: SkMel30
SkMel5 = test system: SkMel5
UACC257 = test system: UACC257
UACC62 = test system: UACC62
WM115 = test system: WM115
WM1716 = test system: WM1716
WM1745 = test system: WM1745
WM3526 = test system: WM3526
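Also: cells treated in 1,536-well plates, then fixed and DAPI-stained, with nuclei counted from automated high-throughput microscope images.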

Compound | cell count (G361) [%] | cell count (IPC-298) [%] | cell count (IST-MEL1) [%] | cell count (LB2518-MEL) [%] | cell count (LOXIMVI) [%] | cell count (MEL-HO) [%] | cell count (MZ2-MEL) [%] | cell count (MeWo) [%] | cell count (RPMI7951) [%] | cell count (RVH-421) [%] | cell count (SkMel28) [%] | cell count (SkMel2) [%] | cell count (SkMel30) [%] | cell count (SkMel5) [%] | cell count (UACC257) [%] | cell count (UACC62) [%] | cell count (WM115) [%] | cell count (WM1716) [%] | cell count (WM1745) [%] | cell count (WM3526) [%]
O=C(O)c1ccc2c(c1)nc(Nc1cccc(Cl)c1)c1ccncc12 + O=C(CCCCCCC(=O)Nc1ccccc1)NO [vorinostat] (first compound 2 µM, partner dose 0.4 µM) | 61.2 | 65.3 | 77.8 | 94 | 33 | 58.6 | 85.1 | 84.1 | 36.2 | 65.7 | 50.3 | 58.4 | 69 | 79.1 | 56.2 | 66.5 | 63.9 | 55.7 | 83.1 | 66
O=C(O)c1ccc2c(c1)nc(Nc1cccc(Cl)c1)c1ccncc12 + C[C@@H]1CCN(C(=O)CC#N)C[C@@H]1N(C)c1ncnc2[nH]ccc12 [CP690550] (first compound 2 µM, partner dose 5 µM) | 79 | 77.5 | 83.1 | 129 | 40.3 | 68.6 | 95.3 | 93.7 | 100 | 93.1 | 90.9 | 70.9 | 77.4 | 92.6 | 101 | 98.4 | 157 | 127 | 75.6 | 80.8
O=C(O)[C@@H]1[O][Sb](=[O])([O][Sb]2(=[O])[O][C@H]([C@H](O)CO)[C@H](O)[C@H](C(=O)O)[O]2)[O][C@H]([C@H](O)CO)[C@@H]1O (stereo not given in full) [stibogluconate] + NC(=O)Nc1cc(-c2cccc(F)c2)sc1C(=O)N[C@H]1CCCNC1 [AZD7762] (first compound 10 µM, partner dose 0.1 µM) | 86.6 | 98.2 | 92.9 | 60.7 | 78.9 | 89.6 | 99.2 | 87.8 | 21.7 | 105 | 52.8 | 74.2 | 81.1 | 72 | 117 | 80.3 | 67.5 | 65.5 | 59.5 | 40.5
Cc1cc(N2CCOCC2)cc2[nH]c(-c3c(NC[C@@H](O)c4cccc(Cl)c4)cc[nH]c3=O)nc12 + c1cc(-c2cnn3cc(-c4ccc(OCCN5CCCCC5)cc4)cnc23)ccn1 [Dorsomorphin] (first compound 1 µM, partner dose 2 µM) | 59.8 | 73.4 | 84.4 | 62 | 86.1 | 84.7 | 58.5 | 54 | 75.4 | 95.7 | 59.5 | 61.6 | 62.2 | 44.8 | 74.3 | 86.4 | 69.2 | 77.6 | 32 | 61.5
O=C(O)[C@@H]1[O][Sb](=[O])([O][Sb]2(=[O])[O][C@H]([C@H](O)CO)[C@H](O)[C@H](C(=O)O)[O]2)[O][C@H]([C@H](O)CO)[C@@H]1O (stereo not given in full) [stibogluconate] + O=C(Nc1cccc(Cl)c1)Nc1ncc(CCNc2ncnc3ccsc23)s1 [SNS314] (first compound 10 µM, partner dose 0.004 µM) | 73.7 | 99.8 | 51.8 | 91.2 | 86.6 | 64.9 | 96.1 | 56.8 | 55.8 | 83.9 | 44.3 | 82.1 | 81.1 | 88.5 | 66.1 | 82.3 | 39.1 | 40.1 | 73.1 | 64
Cn1nnc2c(C(N)=O)ncn2c1=O [temozolomide] + O=C(Nc1ccccc1)c1cc([N+](=O)[O-])ccc1Cl [GW9662] (first compound 10 µM, partner dose 10 µM) | 89.8 | 81 | 90.1 | 63.3 | 81.3 | 82.1 | 82.1 | 72.6 | 81.1 | 80.5 | 31.9 | 86.9 | 69.5 | 80.8 | 75.9 | 70.1 | 60 | 57.4 | 69.1 | 82.7
Cc1cc(N2CCOCC2)cc2[nH]c(-c3c(NC[C@@H](O)c4cccc(Cl)c4)cc[nH]c3=O)nc12 + C[C@@H]1CCN(C(=O)CC#N)C[C@@H]1N(C)c1ncnc2[nH]ccc12 [CP690550] (first compound 1 µM, partner dose 5 µM) | 79.9 | 99.4 | 104 | 75.5 | 72.7 | 101 | 123 | 65.4 | 108 | 104 | 99.1 | 75.6 | 84.5 | 73.3 | 99.1 | 101 | 67.2 | 102 | 60.1 | 79.3
O=C(Nc1cc(C(F)(F)F)cc(C(F)(F)F)c1)c1cc(Cl)ccc1O + Cc1cc(Nc2cc(N3CCN(C)CC3)nc(/C=C/c3ccccc3)n2)n[nH]1 [ENMD2076] (first compound 0.08 µM, partner dose 0.2 µM) | 96.1 | 89.2 | 85.7 | 85.6 | 90.8 | 81.8 | 99 | 82 | 83.3 | 84.7 | 54.3 | 82.9 | 105 | 71.7 | 87.4 | 78.7 | 63.1 | 92.4 | 101 | 86.8
Cc1cc(N2CCOCC2)cc2[nH]c(-c3c(NC[C@@H](O)c4cccc(Cl)c4)cc[nH]c3=O)nc12 + O=c1cc(-c2cccc3c2Sc2ccccc2S3)oc(N2CCOCC2)c1 [KU55933] (first compound 1 µM, partner dose 5 µM) | 54 | 82.1 | 94.5 | 84.3 | 97.6 | 78.8 | 88.6 | 73.1 | 62.5 | 74.8 | 44.6 | 65.6 | 87.6 | 86.9 | 93.8 | 99.2 | 78.1 | 84.9 | 54.1 | 62.1
Cc1cc(N2CCOCC2)cc2[nH]c(-c3c(NC[C@@H](O)c4cccc(Cl)c4)cc[nH]c3=O)nc12 + O=C(Nc1ccccc1)c1cc([N+](=O)[O-])ccc1Cl [GW9662] (first compound 1 µM, partner dose 10 µM) | 67.3 | 87.1 | 101 | 97.8 | 53.6 | 96.5 | 87.5 | 63.8 | 110 | 155 | 66.8 | 83.7 | 68.5 | 69.9 | 83.2 | 108 | 77.6 | 104 | 58.3 | 85.7
O=C(O)c1ccc2c(c1)nc(Nc1cccc(Cl)c1)c1ccncc12 + CO[C@@H]1[C@H](N(C)C(=O)c2ccccc2)C[C@H]2O[C@]1(C)n1c3ccccc3c3c4c(c5c6ccccc6n2c5c31)C(=O)NC4 [Midostaurin] (first compound 2 µM, partner dose 0.4 µM) | 36.6 | 54.1 | 63.9 | 73.8 | 29.2 | 39.8 | 44.5 | 54.7 | 32.3 | 53.1 | 42.5 | 35.9 | 74.4 | 44.6 | 49.9 | 67.6 | 46.4 | 40.7 | 22.9 | 47
O=C(Nc1ccccc1)c1cc([N+](=O)[O-])ccc1Cl + O=C(O)C(=O)Nc1sc2c(c1C(=O)O)CCNC2 [TCS401] (first compound 10 µM, partner dose 8.33333 µM) | 98.1 | 97.1 | 109 | 86.6 | 79.6 | 89.5 | 87.2 | 104 | 63.9 | 70.1 | 49.5 | 102 | 95 | 85.7 | 87.9 | 121 | 66.7 | 93.5 | 73.2 | 76.9
O=C(Nc1cc(C(F)(F)F)cc(C(F)(F)F)c1)c1cc(Cl)ccc1O + NCC(=O)Nc1ccc(-n2nc(C(F)(F)F)cc2-c2ccc3c(ccc4ccccc43)c2)cc1 [OSU03012] (first compound 0.08 µM, partner dose 5 µM) | 60.6 | 49.3 | 66.3 | 77.3 | 62.4 | 76.7 | 85.2 | 73.3 | 73.9 | 67.7 | 23.5 | 32.3 | 39 | 49.3 | 75.1 | 64.9 | 69.2 | 77.7 | 81.5 | 49.2
O=C(Nc1cc(C(F)(F)F)cc(C(F)(F)F)c1)c1cc(Cl)ccc1O + Cn1cncc1[C@@](N)(c1ccc(Cl)cc1)c1ccc2c(c1)c(-c1cccc(Cl)c1)cc(=O)n2C [tipifarnib] (first compound 0.08 µM, partner dose 0.05 µM) | 79.2 | 82.4 | 81.8 | 74.5 | 84.6 | 89.8 | 104 | 69.7 | 80.1 | 84 | 54.9 | 68.6 | 107 | 57.2 | 77.9 | 74.9 | 67.5 | 69.7 | 80.7 | 71.4
O=C(Nc1cc(C(F)(F)F)cc(C(F)(F)F)c1)c1cc(Cl)ccc1O + CC(C)(C)c1cnc(CSc2cnc(NC(=O)C3CCNCC3)s2)o1 [SNS-032] (first compound 0.08 µM, partner dose 0.05 µM) | 105 | 113 | 90.3 | 85.5 | 118 | 94.1 | 96 | 108 | 41.5 | 94.6 | 95 | 86.4 | 123 | 102 | 97.7 | 86.5 | 72.3 | 85.5 | 84.6 | 128
Cc1cc(N2CCOCC2)cc2[nH]c(-c3c(NC[C@@H](O)c4cccc(Cl)c4)cc[nH]c3=O)nc12 + COc1ccc(COc2ccc(Cc3cnc(N)nc3N)cc2OC)cc1 [GW2580] (first compound 1 µM, partner dose 5 µM) | 81.9 | 93.6 | 86.3 | 101 | 98.2 | 91.6 | 39.8 | 63.5 | 96 | 99 | 102 | 91.3 | 82.3 | 63 | 77.5 | 103 | 96.8 | 136 | 61.8 | 76.3
Cc1cc(N2CCOCC2)cc2[nH]c(-c3c(NC[C@@H](O)c4cccc(Cl)c4)cc[nH]c3=O)nc12 + CN(C)S(=O)(=O)c1ccc2c(c1)/C(=C/c1cc3c([nH]1)CCCC3)C(=O)N2 [SU6656] (first compound 1 µM, partner dose 2 µM) | 58.2 | 88.3 | 69.8 | 63.7 | 78.4 | 72.6 | 107 | 52.3 | 48.2 | 79.4 | 37.5 | 73.1 | 75.5 | 46.5 | 77.8 | 92.5 | 44.1 | 50.6 | 40.7 | 64.8
